This is an account of results in ChEMBL document CHEMBL4888484, “Replenishing the malaria drug discovery pipeline: Screening and hit evaluation of the MMV Hit Generation Library 1 (HGL1) against asexual blood stage Plasmodium falciparum ,using a nano luciferase reporter read-out” (2022).

Broadly, the % Inhibition is the relative decrease from the control value, in per cent.

The whole screen tested about 150,000 compounds, of which about 540 (0.36%) showed an effect of 50% or more. Some of the results follow.

The assay has as its system Plasmodium falciparum. The experiment in a line: Primary screen in NF54 nanoGlo assay, in single point, at 2uM, 72h; a lower Z score goes with more inhibition. The assay is classed as functional, Erythrocyte. As to conditions: timepoint 72 hour.
Take `COc1cc2c(cc1OC)CN(C(=O)Cc1nn(C)c3ccccc13)CC2`: the “% Inhibition” value was 11% and the Z score is -1.93.
Consider `COc1cc(-c2nc(CN3CCN(Cc4nccn4C)CC3)c(C)o2)cc2c1OCO2`, for which the “% Inhibition” value is reported as -9% and the Z score turned out to be 0.75.
On the same counts, the results for `O=S(=O)(c1sccc1C1OCCO1)N1CC[C@]2(CCOC2)C1` are -5% and 0.62.
On the same counts, the results for `Cc1nn(C)c(N)c1C(=O)NC[C@@H]1C[C@H]1c1ccccc1` are -6% and 0.93.
Regarding `Cc1noc(CS(=O)(=O)Cc2csc(C3CCCCC3)n2)n1`, the “% Inhibition” value stood at 3% and the Z score is given as -0.35.
Consider `Cc1csc2c(N3CC[C@H](N4CCN(C)CC4)[C@H](CCC(=O)O)C3)ncnc12`, for which the “% Inhibition” value is given as -3% and the Z score is 0.52.
Turning to `O=C(N[C@H]1CCN2C(=O)c3ccccc3NC(=O)[C@H]12)c1cccc(F)c1`, the “% Inhibition” value is reported as -6% and the Z score turned out to be 0.9.
On the same counts, the results for `O=C1C(n2ccnc2C(O)c2ccccc2)CCN1CC(F)(F)F` (stereo not drawn) are 2% and -0.19.
For the compound `Cc1nn(C)c2nc(NCCc3noc(C4CC4)n3)sc12`, the “% Inhibition” value stood at 11% and the Z score is recorded as -1.65.
As for `COc1ccnc(N2CCN([C@@H](C)c3nc(-c4ccccc4C)no3)CC2)n1`, the “% Inhibition” value is -10% and the Z score turned out to be 1.17.
On the same counts, the results for `Nc1ccnc(CNC(=O)C(Cc2ccccc2)Cc2ccccc2)n1` are -17% and 1.76.
Take `Clc1cnc(NCC[C@H]2CCCCN2C2CCCC2)nc1`: the “% Inhibition” value stood at 13% and the Z score was -2.41.
In the same order, the values of `CC(C)c1cc(CNC2C3CCCOC3C2(C)C)on1` (stereo not drawn) are -16% and 1.97.
On the same counts, the results for `O=C(N[C@H]1CC(=O)N(c2ccc(F)cc2)C1)C1CCCC1` are -9% and 1.74.
On the same counts, the results for `Nc1c(C(=O)O)nc2c(Cl)cc(Cl)cn12` are -10% and 1.23.
Turning to `O=C([C@H]1CCN1)N1CCCCCc2ccccc21`, the “% Inhibition” value was -2% and the Z score came out at 0.34.
For `O=C(c1ccccc1F)N1CCC(C(=O)N2CCCc3ccccc32)CC1`, the “% Inhibition” value is reported as 2% and the Z score is given as -0.32.
In the same order, the values of `COc1ccc(-n2ncc(Oc3ccc(Cl)cc3)c(Nc3cccc(C(=O)N4CCN(C(C)=O)CC4)c3)c2=O)cc1` are -11% and 1.44.
Take `COc1cc(OC)c(NC(=O)N[C@H]2CCN(c3ccc(F)cc3)C2=O)cc1Cl`: the “% Inhibition” value is -9% and the Z score is listed as 1.38.
As for `COc1ccccc1CCCN[C@H]1CCCNC1`, the “% Inhibition” value was 0% and the Z score is given as -0.01.
Regarding `CNC/C=C/COc1cccc(C(C)(C)C)c1`, the “% Inhibition” value is listed as 8% and the Z score is listed as -1.36.
On the same counts, the results for `COCn1nccc1S(=O)(=O)N1CCOC[C@H]1c1cccc(F)c1` are -3% and 0.42.
Take `O=C(NCCN1CCC[C@H](CO)C1)NCC1CCCCC1`: the “% Inhibition” value is given as -10% and the Z score is reported as 1.05.
As for `COc1ccc(-c2cc3nc(C4CCN(C(=O)OC(C)(C)C)CC4)c(C(=O)Nc4ccc(C)c(C)c4)cn3n2)cc1`, the “% Inhibition” value is reported as -6% and the Z score was 0.9.
Take `C[C@H]1CN(S(=O)(=O)CC2CC2)CCN1S(=O)(=O)CC1CC1`: the “% Inhibition” value was -5% and the Z score is recorded as 0.94.
For `CCOC(=O)[C@H](C)N1CCC(Nc2nc(CC)cs2)CC1`, the “% Inhibition” value is -11% and the Z score was 1.57.
Consider `O=C(c1cc(C2CC2)[nH]n1)N1CC(OCC(F)F)C1`, for which the “% Inhibition” value was found to be 28% and the Z score is listed as -3.19.
On the same counts, the results for `Cc1nc(-c2ccc(Cl)s2)sc1C(=O)N[C@H]1CCOC2(CCCC2)C1` are -5% and 0.59.
For `COCCN1CCn2cc(S(=O)(=O)Nc3ccccc3F)cc2C1=O`, the “% Inhibition” value was -2% and the Z score is listed as 0.28.
On to `Cc1ccccc1NC(=O)CC(=O)N(C)CCN1CCCCC1=O`, for which the “% Inhibition” value is given as -14% and the Z score was found to be 1.32.
In the same order, the values of `CCOC1CC(NC(=O)C2CCCN2c2ncccn2)C12CCCC2` (stereo not drawn) are -3% and 0.44.
As for `COc1cccc(C(=O)N(Cc2ccc(F)cc2)c2cccc(CC(=O)NCC3CC3)c2)c1`, the “% Inhibition” value worked out at 3% and the Z score is -0.56.
In the same order, the values of `Nc1nc2c(s1)[C@@H](c1cccc(OCCc3ccccc3)c1)CC(=O)N2` are 5% and -0.5.
On the same counts, the results for `COc1cccc(C(=O)N2CCC3(CC2)C[C@@H](N(C)Cc2ccccc2)CCO3)c1` are -9% and 1.23.
In the same order, the values of `O=C(O)c1cc(NS(=O)(=O)c2cc(F)ccc2F)ccc1N1CCCCCC1` are -4% and 0.67.
As to `CCC[C@@]1(C2CCN(C(=O)c3onc4c3CCCC4)CC2)NC(=O)N(CCc2ccccn2)C1=O`, the “% Inhibition” value is given as -11% and the Z score came out at 1.42.
With `Cn1cnn(CC(=O)NC[C@H]2CCOC3(CCC3)C2)c1=O`, the “% Inhibition” value is 3% and the Z score is listed as -0.37.
`Cc1nnc(Cc2ccc(-n3ccnc3-c3ccnc(C(C)C)n3)cc2)[nH]1`: the “% Inhibition” value is -12% and the Z score turned out to be 2.05.
In the same order, the values of `O=C(CC(=O)OCC(=O)N1CCCCCC1)NCC(F)(F)F` are -7% and 1.08.
On the same counts, the results for `O=C(Nc1ccc(-c2ccco2)cc1)[C@H]1CCCN(Cc2nc3c(s2)CCCC3)C1` are 9% and -1.06.
As to `O=C(c1cc2ccccc2o1)N1CC(Nc2ccncn2)C1`, the “% Inhibition” value is reported as -21% and the Z score was determined as 4.28.
On the same counts, the results for `COC(=O)CN1CCCN(CC(=O)Nc2ccc(C)c(C)c2)CC1` are -3% and 0.21.
On to `CC[C@H](NS(=O)(=O)c1cccc(C(=O)N2CCCC2)c1)c1nc(C)no1`, for which the “% Inhibition” value was found to be 2% and the Z score was -0.29.
In the case of `O=C(NCCn1c(=O)[nH]c2ccsc2c1=O)c1ccn[nH]1`, the “% Inhibition” value was -3% and the Z score came to 0.6.
Regarding `O=S(=O)(c1cccc(F)c1)N1CCOc2ccc(COCc3ccccc3)cc2C1`, the “% Inhibition” value amounted to 6% and the Z score was -0.9.
Take `CC(C)=CCC[C@@]1(C)CCC(=O)N(C2CCN(c3cnccn3)CC2)C1`: the “% Inhibition” value was -6% and the Z score came out at 1.04.
In the same order, the values of `CC(=O)NCC(=O)N(Cc1ccccc1C(F)(F)F)C1CCCC1` are -4% and 0.48.
In the case of `CC(=O)c1cc(CN2CCC[C@H](c3nc(C)n[nH]3)C2)n(C)c1`, the “% Inhibition” value is -8% and the Z score amounted to 1.29.
In the same order, the values of `N#Cc1cnc(N[C@H]2CC23CC3)c(F)c1` are -11% and 2.11.
In the same order, the values of `CCOC(=O)N1CCN(C(=O)c2ccsc2)CC1` are -2% and 0.26.
For the compound `O=C(c1cncc(Br)c1)N1CCC[C@H](Oc2ccncn2)C1`, the “% Inhibition” value is 11% and the Z score is on record as -1.53.
As for `CCC(=O)N(CC1CCN(C2Cc3ccccc3C2)CC1)C[C@H]1CCCO1`, the “% Inhibition” value is listed as -9% and the Z score came to 1.83.
As to `N#Cc1nccnc1O[C@H]1CCN(C(=O)Cc2ccc(Cl)cc2)C1`, the “% Inhibition” value is given as -6% and the Z score is 1.04.
In the same order, the values of `c1ccc(-c2onc3cc4c(cc23)OCCO4)cc1` are -25% and 2.66.
In the case of `Cc1cccc(NC(=O)CN2CCC3(CCO3)CC2)c1`, the “% Inhibition” value is recorded as -1% and the Z score is reported as 0.22.
On the same counts, the results for `Cc1ccc(C)c(C(O)CN(C)CC2CCS(=O)(=O)C2)c1` (stereo not drawn) are -16% and 1.65.
On the same counts, the results for `CC(C)(C)c1csc(-c2cnccn2)n1` are -15% and 1.5.
`CC(C)COc1ccc(C(C)(C)N)cc1`: the “% Inhibition” value is recorded as -1% and the Z score is reported as 0.15.
On the same counts, the results for `O=C(OCc1ccccc1)[C@@H]1CCCN1C(=O)CCc1cccnc1` are -10% and 1.37.
On the same counts, the results for `O=C(Nc1cnc(-n2ccnc2)nc1)C(c1ccccc1)c1ccccc1` are 32% and -2.7.
For the compound `O=C(CCc1ccc(F)cc1)Nc1cccc(-c2n[nH]c(=O)[nH]2)c1`, the “% Inhibition” value amounted to 8% and the Z score is given as -1.28.
In the same order, the values of `O=C(NCC1CCCO1)C1CCCN(c2cc3c(nn2)CCC3)C1` (stereo not drawn) are 2% and -0.28.
In the same order, the values of `Cc1ccc(S(=O)(=O)N2CCC(N3CCCCCC3)CC2)cc1` are -10% and 1.27.
Consider `COc1ccc(Cc2nc(CCO)n(-c3cc(C)ccn3)n2)cc1OC`, for which the “% Inhibition” value is on record as -7% and the Z score is 0.93.
On to `N#Cc1nc(C2CC2c2ccccc2)oc1N1CCCCCC1` (stereo not drawn), for which the “% Inhibition” value is 3% and the Z score is listed as -0.35.
On the same counts, the results for `Cn1c(=O)cnc2ccc(N3CCCC3)nc21` are 0% and 0.07.
In the case of `Cc1c(C(=O)N2CCC[C@H](NC(=O)N(C)C)C2)cnn1C(C)C`, the “% Inhibition” value amounted to 8% and the Z score is on record as -1.22.
On the same counts, the results for `Cc1cccc(C(=O)Nc2cc(C(=O)O)ccc2N(C)CCc2c(C)nn(C)c2C)c1` are -9% and 1.34.
On the same counts, the results for `O=S(=O)(c1ccc2c(c1)OCCCO2)N(CCc1nc2ccccc2s1)S(=O)(=O)c1ccc2c(c1)OCCCO2` are -3% and 0.68.
In the same order, the values of `N#Cc1ccc(CN2CCN3C(=O)c4ccccc4OCC[C@@H]4CCC[C@@H](CNC(=O)[C@@H]3C2)O4)cc1` are 21% and -2.76.
As for `CCn1ncc(CN2CCC3(CC[C@@H]3OCc3nc(C)no3)CC2)c1C`, the “% Inhibition” value is reported as -14% and the Z score is 1.79.
With `NC(=O)Cc1nc(CCCc2cn[nH]c2)n(-c2ccncc2)n1`, the “% Inhibition” value came out at 8% and the Z score is on record as -1.4.
For the compound `COCCC(=O)N(Cc1cscn1)c1ccccc1`, the “% Inhibition” value is on record as -4% and the Z score was 0.49.
As to `CCN(Cc1cc(CC(C)C)[nH]n1)CC(F)(F)F`, the “% Inhibition” value stood at 5% and the Z score is reported as -0.62.
On the same counts, the results for `O=C(C1CC(=O)N(c2ccc(F)cc2)C1)N1CCC(c2ccccc2F)S(=O)(=O)CC1` (stereo not drawn) are -7% and 1.25.
In the same order, the values of `CC(C)c1nc(CN(C)S(=O)(=O)Cc2ccc(Cl)cc2F)cs1` are 0% and 0.
For `Cc1cc(C)cc(N(C(=O)C2CCN(S(C)(=O)=O)CC2)c2nc(-c3ccc(F)cc3)cs2)c1`, the “% Inhibition” value is on record as -7% and the Z score amounted to 0.9.
On to `CCn1c(C)cc(O)c([C@H](c2ccncc2)N2CCC(Cc3ccccc3)CC2)c1=O`, for which the “% Inhibition” value is recorded as 15% and the Z score is on record as -1.87.
Turning to `Cc1cnccc1CC(=O)N1CCC(C)C1c1cccc(F)c1` (stereo not drawn), the “% Inhibition” value is listed as -9% and the Z score is given as 1.16.
In the case of `COc1ccc(COCc2ncc[nH]2)cn1`, the “% Inhibition” value came to 30% and the Z score was -3.38.
In the same order, the values of `COCCN1CCN(C(=O)[C@@H]2COc3ccccc3C2)CC1=O` are -14% and 2.34.
Turning to `COCc1ccc(C(=O)N2CCNC(=O)[C@@H]2Cc2ccccc2)s1`, the “% Inhibition” value is 5% and the Z score is given as -0.91.
On the same counts, the results for `CC(C)(C)C[C@H]1CCN(C(=O)NCc2ccc(=O)[nH]n2)C1(C)C` are -4% and 0.41.
In the same order, the values of `O=C(NCC#CCN1CCc2ccccc2C1)c1ccc(=O)[nH]n1` are 5% and -0.54.
